The record followed here is the RNAGym collection of RNA variant scans (doi:10.1093/nar/gkz1192).

B1: CPEB3 Ribozyme (parent)
chain: UAACAGGGGGCCACAGCAGAAGCGUUCACGUCGCAGCCCCUGUCAGAUUCUGGUGAAUCUGCGAAUUCUGCUGUAUAUCUC

Read counts are not given, so values of variants with three or more changes are uncertain.

The variants in the data set derive from B1. Briefly: self-cleavage, relative activity (ratio to wild type); higher = more cleavage; in vitro, sequencing. An outline of the steps: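 Relative activity was defined as the cleaved/total read fraction for a variant divided by the same fraction for the unmutated ribozyme. CPEB3 self-cleaving ribozyme libraries were made by rounds of error-prone PCR, barcoded, and transcribed in vitro with T7 RNA polymerase for 5 hours at 37°C, and cleavage ran through transcription plus a 15 min DNase I step before EDTA. Illumina sequencing of template-switched reverse transcripts gave the reads, and DNA sequencing mapped the barcodes. Averages come from three batches, using variants with at least 5 reads.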
With UAACAGGGGGCCACAGCAGAAGCGUUCACGUCGCAGCCCCUGUCUGAUUCUGGUGAAUCUGCGAAUUCUGCUGCGUAUCUC, the self-cleavage came to 0.65. The result for UAACAGGGGGCCACAGCAGAAGCGUUCACGUCGCAGCCCCUGUCAAAUCCUGGUGAAUCUGCGGAUUCUGCUGUAUAUCUC reads 0.18; that for UAACAGGGGGCCACAGCAGAAGCGUUCACGUCGCAGCCCCUGUCAGGUUCCGGUGAAUCUGCGAAUUCUGCAGUAUAUCUC, 0.94. The result for UAACAGGGGGCCACAGCAGAAGCGUUCACGUCGCAGCCCCUGUCAAAUUCUGGGGAAGCUGCGAAUUCAGCUGUAUAUCUC reads 0.23; that for UAACAGGGGGCCACAGCAGAAGCGUUCACGUCGCAGCCCCUGUCAGGUUCUGGUGGAUCUGCGUAUUCUGCUGUAUUUCUC, 0.41; that for UAACAGGGGGCCACAGCAGAAGCGUUCACGUCGCAGCCCCUGUCAGGUUCUAGUGAAACUGCGAAUUCUGCUGUAUAUCUC, 0.65.

For UAACAGGGGGCCACAGCAGAAGCGUUCACGUCGCAGCCCCUGUCACUUUCUGGUGAAUCUGCGAAUUCUGCCGUAUAUCUC, the self-cleavage came to 0.22.

On to UAACAGGGGGCCACAGCAGAAGCGUUCACGUCGCAGCCCCUGUCAUAUUCUGGCGAAUCAGCGGAUUCUGCUGUAUAACUC, for which the self-cleavage came out at 0.07. With UAACAGGGGGCCACAGCAGAAGCGUUCACGUCGCAGCCCCUGUCAGGUUCUGGUGACUCUGCGAAUUCUGCUGUAUAACAC, the self-cleavage turned out to be 0.3. For UAACAGGGGGCCACAGCAGAAGCGUUCACGUCGCAGCCCCUGUCACAUUCUGGUGAAUCCGCGGAUUCUGCUGCACAUCUC, the self-cleavage was 0.17. With UAACAGGGGGCCACAGCAGAAGCGUUCACGUCGCAGCCCCUGUCAGGUUCAGGUGACUCUGCGAAUUCUGCUGUGUAUCAC the figure was 0.2; with UAACAGGGGGCCACAGCAGAAGCGUUCACGUCGCAGCCCCUGUCAGCUACUGGUGAGUCUGCGAAUUCUGCUGUAUAUCUU, 0.47. The result for UAACAGGGGGCCACAGCAGAAGCGUUCACGUCGCAGCCCCUGUCAUUUUCUGGUGGAUCUGCGAAUCCUGCUGUAUAUCUC reads 0. UAACAGGGGGCCACAGCAGAAGCGUUCACGUCGCAGCCCCUGUCAGGUUCUGGUGAAUCUGCGGACUCUGCUGUAUAUCUC: the self-cleavage worked out at 0.25. The result for UAACAGGGGGCCACAGCAGAAGCGUUCACGUCGCAGCCCCUGUCAGUCUCUGGCGAAUCUGCGAAUUCUGCUGUAUAUCUC reads 0.14; that for UAACAGGGGGCCACAGCAGAAGCGUUCACGUCGCAGCCCCUGUCAGGUUCAGGUGAAUCUGCGAACUCUGCUGUAUAUCAC, 0.11; that for UAACAGGGGGCCACAGCAGAAGCGUUCACGUCGCAGCCCCUGUCAGGUUCUGGUGAAUCUGCCAAUUCUGCUGUAUAUCUU, 0.79. The result for UAACAGGGGGCCACAGCAGAAGCGUUCACGUCGCAGCCCCUGUCAGGUUCUGGUGAAUCUGCGAAUUCUGCUGUAUGACUC reads 1.19.

With UAACAGGGGGCCACAGCAGAAGCGUUCACGUCGCAGCCCCUGUCAGGUCCUGGUGAUCCUGCGAAUCCUGCUGUAUAUCUC, the self-cleavage worked out at 0.14.

On to UAACAGGGGGCCACAGCAGAAGCGUUCACGUCGCAGCCCCUGUCAGUUUCUGGUGAAUCUGCGAAUUCUGCUGUUUGUCUC, for which the self-cleavage stood at 0.57.

In the case of UAACAGGGGGCCACAGCAGAAGCGUUCACGUCGCAGCCCCUGUCAGGUUCUGGAGAAUCUGCGAAUCCCGCUGUAUAUCUC, the self-cleavage worked out at 0.35. As to UAACAGGGGGCCACAGCAGAAGCGUUCACGUCGCAGCCCCUGUCAGGUUCUGGUGAAUCCGCGGAUUCUGCUGUGUAUCUC, the self-cleavage came out at 0.11. The result for UAACAGGGGGCCACAGCAGAAGCGUUCACGUCGCAGCCCCUGUCAAAUUCUGGUGAAUCUCCGAAUCCUGCUGUAUAUCCC reads 0.08. The result for UAACAGGGGGCCACAGCAGAAGCGUUCACGUCGCAGCCCCUGUCAGUUUCUGGUGAAUCUGCGAGUUCUGCUGUAUACCUC reads 0.2.

In the case of UAACAGGGGGCCACAGCAGAAGCGUUCACGUCGCAGCCCCUGUCAGGUUAUGGUGAUUCUGCGUAUUCCGCUGUAUAUCUC, the self-cleavage is 0.08.

For UAACAGGGGGCCACAGCAGAAGCGUUCACGUCGCAGCCCCUGUCAGGUUCUGGUGAAUCUGCGAAUUCUGCCGUAUAUCAC, the self-cleavage turned out to be 1.19.

As for UAACAGGGGGCCACAGCAGAAGCGUUCACGUCGCAGCCCCUGUCAGGUUCUGGUGAAUCUGCGAAUUCUGCCGUAUAUCCC, the self-cleavage worked out at 1.28. The result for UAACAGGGGGCCACAGCAGAAGCGUUCACGUCGCAGCCCCUGUCAGGUUCUGGUGAAUCUGCGAUUACUGCUGUAUAUCUC reads 0.33. For UAACAGGGGGCCACAGCAGAAGCGUUCACGUCGCAGCCCCUGUCAGUUUCUGGUGAGCCUGCGAAUUCUGCUGUAUAUCUC, the self-cleavage came out at 0.25.

UAACAGGGGGCCACAGCAGAAGCGUUCACGUCGCAGCCCCUGUCAGCUCCUGGUCAAUCUGCGAAUUCAGCUGUAUACCUC: the self-cleavage worked out at 0.14. UAACAGGGGGCCACAGCAGAAGCGUUCACGUCGCAGCCCCUGUCAAAUUCGGGUGAAUCUGCGAAUUCAGCUGUAUAUCUC: the self-cleavage is 0.21.

In the case of UAACAGGGGGCCACAGCAGAAGCGUUCACGUCGCAGCCCCUGUCAGGUUCUGGUGGAUCUGCGAAUUCUGCAGUAUAUCUC, the self-cleavage was 1.06.

As for UAACAGGGGGCCACAGCAGAAGCGUUCACGUCGCAGCCCCUGUCAGUUUCUGGUGAGUCUGCGGAUUCUGCUGUAUAUCUC, the self-cleavage was 0.17. The result for UAACAGGGGGCCACAGCAGAAGCGUUCACGUCGCAGCCCCUGUCAGGUUCUGGUGAAUCAGCGAAUUCUGCUGUGUAUCUC reads 0.47.
